Results reported in the supplement of paper PMC12067093, “Discovery and optimisation of a covalent ligand for TRIM25 and its application to targeted protein ubiquitination” (Chemical Science, 2025).
About 21,000 targets were measured; listed, in parts, are those with the largest changes and a random draw of the rest.

Compound: CC1Cc2ccccc2N1C(=O)C1CCCN(C1)C(=O)CCl (mixture of isomers) [TRIM25 ligand 11 (diastereomer mixture)]
Experiment: probe-labelled cysteine peptide fold change vs DMSO (competition) (log2 fold change); higher = less target engagement (more negative = stronger competition)
Conditions: THP-1, incubation time: 4 h
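Also: competitive chemoproteomic profiling in live THP-1 cells with an iodoacetamide desthiobiotin (IA-DTB) probe, comparing probe-labelled peptide intensities in compound-treated cells against DMSO-treated controls.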

Target	probe-labelled cysteine peptide fold change (10 µM)	probe-labelled cysteine peptide fold change (50 µM)
PXN_P49023_443+446_TWHPEHFFCAQCGAFFGPEGFHEK (UniProt P49023)	0.00021	-0.112
ROCK1_Q13464_1261_PLWHVFKPPPALECR (UniProt Q13464)	0.0252	0.186
RGPD3_A6NKT7_220_EYLESLQCLESDKSDWR<|>RGPD8_O14715_220_EYLESLQCLESDKSDWR<|>RGPD1_P0DJD0_211_EYLESLQCLESDKSDWR<|>RGPD2_P0DJD1_219_EYLESLQCLESDKSDWR<|>RANBP2_P49792_220_EYLESLQCLESDKSDWR<|>RGPD4_Q7Z3J3_220_EYLESLQCLESDKSDWR (UniProt Q7Z3J3+P49792+P0DJD1+P0DJD0+O14715+A6NKT7)	0.0118	-0.0884
PSMA6_P60900_115_YGYEIPVDMLCKR (UniProt P60900)	-0.65	-0.444
PUM3_Q15397_185_VIQCYIQYGNEEQRK (UniProt Q15397)	-0.199	-0.0297
RAP1GDS1_P52306_560_YNSMVLICALMGSECLHK (UniProt P52306)	-0.301	-0.167
RNF213_Q63HN8_3008_CSEEVSPMQLIK (UniProt Q63HN8)	-0.0475	-0.255
RCSD1_Q6JBY9_181_RSQSDCGELGDFR (UniProt Q6JBY9)	-0.286	-0.728
RBM39_Q14498_478_CPSIAAAIAAVNALHGR (UniProt Q14498)	-0.11	-0.0358
PTPN11_Q06124_463_QESIMDAGPVVVHCSAGIGR (UniProt Q06124)	0.188	-0.225
RNF126_Q9BV68_16_YFCHCCSVEIVPR (UniProt Q9BV68)	0.0422	0.142
RPL18A_Q02543_109_EYRDLTTAGAVTQCYR (UniProt Q02543)	-0.642	-0.349
RNH1_P13489_305+313_LLCETLLEPGCQLESLWVK (UniProt P13489)	0.054	-0.0643
RAP1A_P62834_118_VKDTEDVPMILVGNKCDLEDER (UniProt P62834)	-0.561	-0.473
RLF_Q13129_773_CELNGCNIVFSDLGQLYHHEAQHFR (UniProt Q13129)	0.133	0.0282
RABEP1_Q15276_734_ENLEETLQLEIENCK (UniProt Q15276)	-0.00626	-0.0663
PSMD1_Q99460_571_MEEADALIESLCR (UniProt Q99460)	0.00582	0.124
RPL14_P50914_54_CMQLTDFILK (UniProt P50914)	-0.148	-0.282
PYCARD_Q9ULZ3_173_LFSFTPAWNWTCK (UniProt Q9ULZ3)	-0.0339	-0.0628
RAB3GAP2_Q9H2M9_828_TACIQSENNGAALLSAHVGHSVAAQISNNMTEK (UniProt Q9H2M9)	0.106	-0.168
RBM14_Q96PK6_108_VIECDVVK (UniProt Q96PK6)	-0.0592	0.00146

Target	probe-labelled cysteine peptide fold change (10 µM)	probe-labelled cysteine peptide fold change (50 µM)
RABGAP1_Q9Y3P9_476_KNNTDTLYEVVCLESESERER (UniProt Q9Y3P9)	-0.104	-0.264
RNASET2_O00584_48_KLIMVQHWPETVCEK (UniProt O00584)	-0.192	-0.349
RAI14_Q9P0K7_168_DLDGNIPLLLAVQNGHSEICHFLLDHGADVNSR (UniProt Q9P0K7)	0.0328	0.563
PUM3_Q15397_610_GAIILSSLLQSCDLEVANK (UniProt Q15397)	-0.0503	0.098
RBM22_Q9NW64_165_NRPHICSFWVK (UniProt Q9NW64)	-0.382	-0.461
RAB7A_P51149_143_AQAWCYSK (UniProt P51149)	0.0123	-0.105
RMND5A_Q9H871_25_FSGYGQLCER (UniProt Q9H871)	-0.0161	-0.0553
PSMG2_Q969U7_195_TLYDESCSK (UniProt Q969U7)	-0.167	-0.0376
RECQL_P46063_471_RVLMAQHFDEVWNSEACNK (UniProt P46063)	0.125	0.0736
ROCK2_O75116_330_NLICAFLTDR<|>ROCK1_Q13464_314_NLICAFLTDR (UniProt Q13464+O75116)	-0.569	-0.204
PTPRC_P08575_1261_VKQDANCVNPLGAPEK (UniProt P08575)	-0.0737	-0.153
QSER1_Q2KHR3_283_SCSTEQPLTSTK (UniProt Q2KHR3)	-0.0163	-0.203
RABGAP1_Q9Y3P9_155_LTYLGCASVNAPR (UniProt Q9Y3P9)	0.181	0.0897
RBM23_Q86U06_215_GIAYVEFCEIQSVPLAIGLTGQR (UniProt Q86U06)	-0.0573	-0.975
PTPN11_Q06124_333_SYIATQGCLQNTVNDFWR (UniProt Q06124)	0.353	0.172
RGS12_O14924_930_EHGDHADDALHANGGLCR (UniProt O14924)	0.64	0.263
QSOX1_O00391_449_GYVHYFFGCR (UniProt O00391)	0.0307	0.255
RANBP6_O60518_792_SIEVMGDGCLNDEHLEELGGILK (UniProt O60518)	-0.039	-0.173
QPRT_Q15274_96_GPAHCLLLGER (UniProt Q15274)	-0.0381	-0.00739
PSMA7_O14818_91_ARVECQSHR (UniProt O14818)	-1.58	-0.169
RANBP2_P49792_815_MICQQVEAIKK (UniProt P49792)	-0.0489	-0.134

Target	probe-labelled cysteine peptide fold change (10 µM)	probe-labelled cysteine peptide fold change (50 µM)
RNF213_Q63HN8_4017_DPVCLPCDHVHCLR (UniProt Q63HN8)	0.244	0.279
PSMA6_P60900_161_CDPAGYYCGFK (UniProt P60900)	0.145	0.14
PTPN1_P18031_344_EETQEDKDCPIKEEK (UniProt P18031)	-0.668	-0.558
RABGGTA_Q92696_516_LQELLLCNNR (UniProt Q92696)	-0.164	-0.00022
RALGAPB_Q86X10_1096_SFPDPVTDCKPPPPAQEFQTAR (UniProt Q86X10)	-0.0494	0.0696
RNH1_P13489_12_SLDIQSLDIQCEELSDAR (UniProt P13489)	1.15	0.678
RPL36A_P83881_77_LECVEPNCR<|>RPL36AL_Q969Q0_77_LECVEPNCR (UniProt Q969Q0+P83881)	0.165	-0.125
RIC8A_Q9NPQ8_79_DRNCLDPFTSR (UniProt Q9NPQ8)	0.00403	-0.00993
RNH1_P13489_199_DSPCQLEALKLESCGVTSDNCR (UniProt P13489)	-0.776	-0.389
RANGAP1_P46060_152_LNNCGMGIGGGK (UniProt P46060)	-0.123	-0.108
PTPMT1_Q8WUK0_127_YQSLGQCVYVHCK (UniProt Q8WUK0)	0.0332	0.197
PSMD1_Q99460_660_YGAAMALGICCAGTGNK (UniProt Q99460)	0.108	0.0435
PTGS2_P35354_299_EHNRVCDVLK (UniProt P35354)	-0.468	-0.683
RP2_O75695_131_LEVFLCCATQPIIESSSNIK (UniProt O75695)	0.2	0.142
RABGAP1_Q9Y3P9_433_VCSPNER (UniProt Q9Y3P9)	0.28	0.513
RAD50_Q92878_990_VIAQLSECEK (UniProt Q92878)	-0.0639	0.0539
PSMB10_P40306_83_IYCCGAGVAADAEMTTR (UniProt P40306)	-0.122	-0.141
PSMA5_P28066_47_LGSTAIGIQTSEGVCLAVEK (UniProt P28066)	0.0727	0.115
RING1_Q06587_398_VSRPLELCYAPTK (UniProt Q06587)	-0.103	-0.215
RMI1_Q9H9A7_268_CFTTGSSSNTIPTR (UniProt Q9H9A7)	0.0146	-0.205
